Experimental data from the BET-seq Pho4 binding data (Le et al. 2018).
The list shows a part of the results. Values were computed here from the reads of four pooled replicates and scatter widely.

biological target: T1, Pho4 (S. cerevisiae) (UniProt P07270); experiment: relative binding free energy (BET-seq); higher = weaker binding; settings: reference: library average
T1 sequence: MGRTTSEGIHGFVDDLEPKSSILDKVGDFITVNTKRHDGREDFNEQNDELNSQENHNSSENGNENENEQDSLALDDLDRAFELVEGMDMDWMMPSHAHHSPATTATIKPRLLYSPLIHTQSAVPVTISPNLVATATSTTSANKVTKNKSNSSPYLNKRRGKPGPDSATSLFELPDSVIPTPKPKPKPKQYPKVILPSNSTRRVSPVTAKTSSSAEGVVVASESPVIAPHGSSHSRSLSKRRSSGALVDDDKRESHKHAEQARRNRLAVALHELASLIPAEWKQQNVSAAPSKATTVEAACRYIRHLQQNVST

Relative binding free energy, 0.25 kcal/mol:
TGTTTCACGTGCTTCG
GTTGTCACGTGAGGTA
TTGTTCACGTGCCTGG

Relative binding free energy, -0.22 kcal/mol:
GGCACCACGTGGGTGG

Relative binding free energy, 0.13 kcal/mol:
TGTCGCACGTGTGAAA
AGGGTCACGTGCGGGG
AATTACACGTGCGGTG
GACAGCACGTGTAGGT
GTGCTCACGTGGGTTT
AGGTGCACGTGAGATA

Relative binding free energy, 0.09 kcal/mol:
GGCAGCACGTGTGAGT
TGATCCACGTGAGGTG

Relative binding free energy, -0.02 kcal/mol:
GTTTGCACGTGGGAGC
TATTGCACGTGTAAGT
ATCGGCACGTGTGTGC

Relative binding free energy, 0.32 kcal/mol:
AGCGACACGTGATTGG
ATTCACACGTGAAGGG
GTATCCACGTGAGGTG
TTTTTCACGTGAAGAA

Relative binding free energy, 0.39 kcal/mol:
GGGTTCACGTGTTCGC

Relative binding free energy, 0.2 kcal/mol:
GGGATCACGTGGGTTC
GCTGGCACGTGAGTTT
ATGAGCACGTGAGGTT
TTTTGCACGTGAGAAT

Relative binding free energy, -0.01 kcal/mol:
CGTCACACGTGGTAGG
GGGGCCACGTGGTTTT
AGAGGCACGTGAGGCT
TTAAACACGTGGGAAG
GGGAACACGTGCTGTT
TGATGCACGTGTCGGC

Relative binding free energy, 0.23 kcal/mol:
GGGCACACGTGTGTAA
GAGTACACGTGTGCTT
CTTTTCACGTGGTGGC
GAACTCACGTGGTTTT
CGGGTCACGTGTGAAT

Relative binding free energy, 0.01 kcal/mol:
TAGGACACGTGGCGTA
TTGTGCACGTGTACGC
CGGGGCACGTGTGAAG
GGTTGCACGTGGATAT
TAGCGCACGTGTAGAG
TCGGTCACGTGCTGTG

Relative binding free energy, 0.07 kcal/mol:
TATTACACGTGTCAGT
CGTTCCACGTGTTTTG
GTTTACACGTGCTAGG

Relative binding free energy, 0.18 kcal/mol:
GGTTTCACGTGTAGCA
GTAATCACGTGTGTGA

Relative binding free energy, -0.03 kcal/mol:
AAGAGCACGTGGGGAC
ATTCGCACGTGCGTTT
GAGAGCACGTGCGGCG
GTTGCCACGTGTTTGG
TGGTGCACGTGCTTAG
GGGTGCACGTGTTGTC

Relative binding free energy, 0.12 kcal/mol:
GAGATCACGTGGGTAT
CGAGTCACGTGTGGCT
ATAGTCACGTGTGTTG
CGGTTCACGTGGGTCA
TTTGTCACGTGTCGCT
TTATGCACGTGTGTTC

Relative binding free energy, -0.05 kcal/mol:
TAGGGCACGTGGACGG
TGATGCACGTGCTTTA
TGTTGCACGTGGCGAT
GGGGCCACGTGTGTCG

Relative binding free energy, 0.05 kcal/mol:
TATGACACGTGTTCAT
AGTGTCACGTGTCAGT
TTTGACACGTGTTAAA
GTATCCACGTGGGGAT
TTTGACACGTGGGAAT

Relative binding free energy, -0.1 kcal/mol:
GATGCCACGTGGGGCG
TAGGACACGTGGGTTT

Relative binding free energy, 0.03 kcal/mol:
GGAGACACGTGCAGTG
ATTGGCACGTGTTGAT

Relative binding free energy, 0.11 kcal/mol:
GTCAACACGTGTGGGG
TTATTCACGTGTCGGA
CGAATCACGTGGGGTG
GTGTACACGTGTTTTG
TGTGCCACGTGACGGA
TGTATCACGTGGATTT

Relative binding free energy, -0.15 kcal/mol:
TTGCACACGTGGGGAG
TATACCACGTGGGAGG
AGTGGCACGTGGTAGG
ACAGGCACGTGGGTCT
AGATGCACGTGGGGCC

Relative binding free energy, 0.15 kcal/mol:
ATGGGCACGTGAGAGC
TTATCCACGTGATTGT
GGTTCCACGTGTTGAA
TTCGTCACGTGGTGGA

Relative binding free energy, 0.3 kcal/mol:
TAATTCACGTGTCAGT
CGATTCACGTGAGAGG
TTATTCACGTGAGATT

Relative binding free energy, -0.04 kcal/mol:
GATGACACGTGGTCTG

Relative binding free energy, -0.17 kcal/mol:
CGAAGCACGTGGGTTG
AGTGGCACGTGGTGTG
AGAGCCACGTGGTTTG
GCTGGCACGTGTTGTG

Relative binding free energy, 0.19 kcal/mol:
GGTTACACGTGGTAAC
GACTTCACGTGGGGAG
GGTAGCACGTGATGTC
GTTATCACGTGGTGAG
GCTATCACGTGTTAGT
CGTATCACGTGTGTTT
TTCGTCACGTGATCGG

Relative binding free energy, 0 kcal/mol:
TGTGACACGTGGTTTA
GGGTGCACGTGCGAGT
AAGTCCACGTGGGGTG
CTAGACACGTGTAGGT
ATGAACACGTGGTTGG
AATCGCACGTGGCAGG

Relative binding free energy, -0.14 kcal/mol:
GTATGCACGTGGTATG
AGTTGCACGTGGGGTT
ATAAACACGTGTTATG
CGATCCACGTGGTGGG

Relative binding free energy, -0.3 kcal/mol:
TCAAGCACGTGGTGGG

Relative binding free energy, 0.04 kcal/mol:
GCGTACACGTGGTGTG
GAGTGCACGTGCAGTG
TAGGACACGTGTAGTA
TGAGCCACGTGTGGCG
TGGAGCACGTGTGGTG

Relative binding free energy, 0.28 kcal/mol:
GTGATCACGTGAGGTC
GGTTCCACGTGAGGCT
CGGGTCACGTGAGGGT
GTATTCACGTGCCTGG
CGGTACACGTGAGGGG

Relative binding free energy, 0.44 kcal/mol:
AGCTTCACGTGATGGG
TTGATCACGTGAGTAA

Relative binding free energy, -0.12 kcal/mol:
TTTGGCACGTGGATAT
TGGGGCACGTGGTGGT
TTATCCACGTGGTGGA
TAGTGCACGTGGTACG

Relative binding free energy, -0.13 kcal/mol:
GGATGCACGTGGGGTT

Relative binding free energy, 0.31 kcal/mol:
ATGGTCACGTGACGGC
GCGTACACGTGGATTT
CGTTTCACGTGATTTT
AATATCACGTGAGGAT

Relative binding free energy, 0.17 kcal/mol:
TGTCACACGTGAGTTA
CTGTTCACGTGGGGAT
TAGGTCACGTGTGTTT
TTGATCACGTGCCGTG

Relative binding free energy, 0.08 kcal/mol:
GTTTGCACGTGGACAG
ATGATCACGTGTATGA
TTCGTCACGTGATGTG
CGGGACACGTGTGGTT
GGATACACGTGGTTCG
TGGGTCACGTGTGCAA
TGTATCACGTGCATGT
ATTAGCACGTGATGAG
CTGCGCACGTGAGTGG
GGAATCACGTGGGTTG
TTAGCCACGTGTTACT
CATGGCACGTGTTAGG

Relative binding free energy, -0.25 kcal/mol:
AGTACCACGTGGGGTG
TACGGCACGTGGGGCG
ATACGCACGTGGGGTA

Relative binding free energy, -0.06 kcal/mol:
AATAACACGTGGTGGA
GGTGACACGTGGGCTC
CGTGACACGTGGAGGT
TTAGTCACGTGGCAGA
TTCGGCACGTGCAGGA
AGTGGCACGTGGATTA

Relative binding free energy, -0.08 kcal/mol:
TAGGACACGTGCGCGG
AGTCACACGTGTGGTT

Relative binding free energy, 0.21 kcal/mol:
GCGGACACGTGTTGGC
TGGGTCACGTGGATTC
TTTCTCACGTGCTGGG
TCAGTCACGTGTGAAT

Relative binding free energy, 0.14 kcal/mol:
CGTATCACGTGTTGGT
TATGTCACGTGATGCG
GTGGTCACGTGGTCTC
TGTTGCACGTGAACAT
CAGATCACGTGGTGGT
GATATCACGTGTTGTA

Relative binding free energy, 0.34 kcal/mol:
GTATTCACGTGTGATT

Relative binding free energy, 0.24 kcal/mol:
CTTGTCACGTGTACTG

Relative binding free energy, 0.26 kcal/mol:
GTGTGCACGTGAAATT
GCTTACACGTGATGGG
AAGGACACGTGATTGA
TTTATCACGTGTAACT

Relative binding free energy, 0.06 kcal/mol:
GGGTGCACGTGTTTAA
TGTAGCACGTGTAATT
TATGTCACGTGTGTCG
GAGGCCACGTGTGGTG
AGTGACACGTGTTACG
CTTTACACGTGTTGAG
CTTATCACGTGGCTGG
GGTGACACGTGTGTAT
TAGTCCACGTGTTAAT

Relative binding free energy, 0.27 kcal/mol:
ATGTTCACGTGTTTGG
GAGCTCACGTGGTAGG
GTTGTCACGTGATGGA
GTCGTCACGTGATCGT
GGCTTCACGTGTGGGT

Relative binding free energy, -0.07 kcal/mol:
TGGTGCACGTGTTAGC
TAAAGCACGTGTGGGC
TAGGGCACGTGTGAGA
CGGAGCACGTGGATGT

Relative binding free energy, 0.4 kcal/mol:
ATATTCACGTGACAGT

Relative binding free energy, 0.42 kcal/mol:
GGTTTCACGTGCTTTC

Relative binding free energy, 0.22 kcal/mol:
TTGGTCACGTGTGAAT
GTTATCACGTGGGAGC
ATATTCACGTGATAAG
TTGTCCACGTGGATTT
GAGTCCACGTGAGGTG
TGAATCACGTGCTAGG

Relative binding free energy, 0.33 kcal/mol:
CAAGTCACGTGTGGAG
ATTTTCACGTGATGGT
TTTCACACGTGAGTTG
AGAATCACGTGAAGTG

Relative binding free energy, 0.02 kcal/mol:
TTGGACACGTGTATTG
GCGGGCACGTGTGAGG
CGCATCACGTGGTGTT

Relative binding free energy, -0.23 kcal/mol:
AGGCGCACGTGTATGG
GCGAGCACGTGGGCGT

Relative binding free energy, 0.29 kcal/mol:
GGTTTCACGTGTACGA

Relative binding free energy, -0.27 kcal/mol:
TCTGGCACGTGGGTAC

Relative binding free energy, -0.09 kcal/mol:
CCCGGCACGTGTGGGG
TCATGCACGTGTTTGT

Relative binding free energy, -0.11 kcal/mol:
TGTAGCACGTGCGTGA
TGCGTCACGTGGGAGA
CGTTGCACGTGGGCAG
ATGCGCACGTGGATTG

Relative binding free energy, -0.19 kcal/mol:
TCTAGCACGTGGGTTT

Relative binding free energy, 0.16 kcal/mol:
TGGAACACGTGCTGAG
CGGGTCACGTGTGCCG
AATGTCACGTGGGAAT
GGGATCACGTGCGTAT
TTAGTCACGTGTCGCG
TGATTCACGTGCTTTG
TTGGTCACGTGGTTTA

Relative binding free energy, -0.16 kcal/mol:
TATAGCACGTGTCATT
GCAGGCACGTGGGTTG
ACGGGCACGTGGGTCA
